Some entries of the source have several records that differ or are many. This is not the full list of results. The source may hold further records. Results that share an entry read as repeated measurements on other runs, samples or individuals; a mean can stand among them. Records carry a tag for their origin. A, B and so on number the origins entry by entry.
Key:
TRPM8 I846V = target: T1, TRPM8 I846V (Mus musculus, UniProt Q8R4D5, I846V); test: whole-cell patch-clamp and thermodynamic mutant cycle analysis; type: cell-based; conditions: read-out: Kd, single recording
T1 construct: expressed in transfected cells; host or cells: HEK293T
T1 sequence (Q8R4D5 whole entry I846V): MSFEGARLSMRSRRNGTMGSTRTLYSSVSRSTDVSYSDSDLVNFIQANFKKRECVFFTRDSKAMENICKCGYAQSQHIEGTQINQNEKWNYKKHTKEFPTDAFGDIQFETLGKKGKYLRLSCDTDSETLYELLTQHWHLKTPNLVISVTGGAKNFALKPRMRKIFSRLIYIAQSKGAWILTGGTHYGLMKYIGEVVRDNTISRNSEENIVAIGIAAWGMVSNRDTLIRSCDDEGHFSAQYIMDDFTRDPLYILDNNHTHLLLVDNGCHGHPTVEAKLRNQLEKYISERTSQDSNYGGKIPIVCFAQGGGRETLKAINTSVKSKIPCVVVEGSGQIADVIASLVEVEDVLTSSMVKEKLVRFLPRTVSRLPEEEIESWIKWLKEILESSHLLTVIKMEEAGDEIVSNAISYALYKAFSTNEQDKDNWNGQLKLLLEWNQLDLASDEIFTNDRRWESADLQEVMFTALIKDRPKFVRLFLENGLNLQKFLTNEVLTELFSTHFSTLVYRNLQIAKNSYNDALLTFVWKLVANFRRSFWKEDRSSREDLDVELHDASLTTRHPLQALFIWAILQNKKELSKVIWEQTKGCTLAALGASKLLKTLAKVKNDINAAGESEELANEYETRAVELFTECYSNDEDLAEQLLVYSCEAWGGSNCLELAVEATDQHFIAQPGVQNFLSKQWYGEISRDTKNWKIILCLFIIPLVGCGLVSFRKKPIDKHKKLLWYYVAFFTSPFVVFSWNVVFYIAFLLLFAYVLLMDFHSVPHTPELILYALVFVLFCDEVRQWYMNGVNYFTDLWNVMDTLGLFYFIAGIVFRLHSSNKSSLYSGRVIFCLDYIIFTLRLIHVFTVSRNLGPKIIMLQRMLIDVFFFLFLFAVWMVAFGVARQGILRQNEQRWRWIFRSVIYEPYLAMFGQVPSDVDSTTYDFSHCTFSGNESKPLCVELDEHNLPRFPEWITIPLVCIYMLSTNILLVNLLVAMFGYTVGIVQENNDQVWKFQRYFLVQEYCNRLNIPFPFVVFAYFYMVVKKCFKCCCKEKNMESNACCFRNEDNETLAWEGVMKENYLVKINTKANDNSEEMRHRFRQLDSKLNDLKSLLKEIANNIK
Description: Murine TRPM8 was used in this study. Point mutations were made by Fast Mutagenesis Kit V2 (SBS Genetech). Primers used to generate point mutations are summarized in Supplementary Table 2. All mutations were confirmed by sequencing.
HEK293T cells purchased from Kunming Cell Bank, Kunming Institute of Zoology, Chinese Academy of Sciences (ATCC, CRL-3216) were cultured in Dulbecco’s modified Eagle’s medium supplemented with 20 mM L-glutamine and 10% fetal bovine serum. Cells were transiently transfected with cDNA constructs by Lipofectamine 3000 (Life Technologies) following the manufacturer’s protocol. Patch-clamp recordings were performed 1–2 days after transfection.
Patch-clamp recordings were performed with a HEKA EPC10 amplifier controlled by PatchMaster software (HEKA). Whole-cell recordings were performed at ±80 mV. […] For single-channel recordings, patch pipettes were fire-polished to a higher resistance of 6-to-10 MΩ and then recorded in the inside-out configuration. […]
(§1) Data from whole-cell recordings were analyzed in Igor Pro version 6.1 (WaveMatrix). […]
To perform thermodynamic cycle analysis, Kd values of four channel-ligand combinations (WT channel, menthol: Kd _1; Mutant channel, menthol: Kd _2; WT channel, menthol analog: Kd _3; Mutant channel, menthol analog: Kd _4) were determined separately. […] LnΩ was calculated by Eq. (2) as[51]2 LnΩ=LnKd_1⋅Kd_4/Kd_2⋅Kd_3.

wild-type TRPM8 = target: T2, wild-type TRPM8 (Mus musculus, UniProt Q8R4D5); test: whole-cell patch-clamp recording of ligand activation; type: cell-based; conditions: WT; read-out: Kd, single recording
T2 construct: expressed in transfected cells; host or cells: HEK293T
T2 sequence (Q8R4D5 whole entry): as the sequence (Q8R4D5 whole entry I846V) above, with V846I counted along it
Description: Murine TRPM8 was used in this study. Point mutations were made by Fast Mutagenesis Kit V2 (SBS Genetech). Primers used to generate point mutations are summarized in Supplementary Table 2.
Cells were transiently transfected with cDNA constructs by Lipofectamine 3000 (Life Technologies) following the manufacturer’s protocol. Patch-clamp recordings were performed 1–2 days after transfection.
Patch-clamp recordings were performed with a HEKA EPC10 amplifier controlled by PatchMaster software (HEKA). Whole-cell recordings were performed at ±80 mV. Patch pipettes were prepared from borosilicate glass and fire-polished to resistance of ~4 MΩ. For whole-cell recording, serial resistance was compensated by 60%. For single-channel recordings, patch pipettes were fire-polished to a higher resistance of 6-to-10 MΩ and then recorded in the inside-out configuration. To maximize the chance of obtaining a patch with only one channel, single-channel recordings were performed about 8 h after transfection. A solution with 130 mM NaCl, 10 mM glucose, 0.2 mM EDTA, and 3 mM HEPES (pH 7.2) was used in both bath and pipette for either whole-cell or single-channel recordings. Membrane potential was clamped at +80 mV for single-channel recordings. Current was sampled at 10 kHz and filtered at 2.9 kHz. […]
as §1

SMILES	Kd (TRPM8 I846V)	Kd (wild-type TRPM8)
C=C(C)[C@@H]1CC[C@@H](C)C[C@H]1O [isopulegol]	9.76 mM, 689 µM, 3.17 mM, 2.75 mM [lines of one column]	–
CC(C)[C@@H]1CC[C@@H](C)C[C@H]1O [menthol, (−)-menthol]	–	2.04 mM, 1.98 mM, 350 µM, 685 µM, 256 µM [table A] and 1.61 mM, 2.14 mM, 352 µM, 658 µM, 71.2 µM [table B]

— article PMC7391767, “Molecular mechanisms underlying menthol binding and activation of TRPM8 ion channel” (Nature Communications, 2020)
